Reference: ChEMBL document CHEMBL1157539, “Thousands of chemical starting points for antimalarial lead identification” (Nature, 2010)
In all, about 13,000 compounds were measured (“IFI”: median about 4, highest 2% from about 17 on). The list shows a part of the results.

assay: GSK_TCMDC: Inhibition Frequency Index (IFI). The number of non-kinase HTS assays where a compound showed > 50 % inhibition, expressed as a percentage of the number of such assays in which the compound was tested (-0 is zero); type: functional

Row | Compound | IFI
1 | Fc1cc(Cl)ccc1Nc1ccnc2cc(I)ccc12 | 2.86%
2 | CC1(C)NC(N)=NC(=N)N1OCCCOc1ccccc1Cl | 4.32%
3 | Cc1cc(CNCCCCCCNCc2ccc(Cl)cc2)ccc1O | 1.49%
4 | NCc1cccc(-c2ccc(CNC3CCN(Cc4ccccc4)CC3)cc2)c1 | 2.88%
5 | CCCN1CCN(c2ccc(NS(=O)(=O)c3ccc(C(=O)Nc4ccc(Cl)cc4)cc3)cc2)CC1 | 1.69%
6 | Cc1ccc(C)c(S(=O)(=O)NCC2CCN(Cc3ccc(O)cc3)CC2)c1 | 0%
7 | CN1CC[C@@H](Oc2cc(Nc3nc(-c4ccc(C#N)cc4)cs3)ccc2Cl)C1 | 8.87%
8 | O=C(Nc1ccc(OC2CCN(Cc3ccccc3)C2)c(Cl)c1)c1ccsc1 (configuration not stated) | 7.69%
9 | O=C(Nc1cccc(C(F)(F)F)c1)c1cccc(S(=O)(=O)NCC2CCCN(CC3CCCCC3)C2)c1 (configuration not stated) | 7.14%
10 | CC(C)c1ccc(C(NC(=O)C2CCCCC2)c2ccc3cccnc3c2O)cc1 (configuration not stated) | 2.07%
11 | CC1CCC(C[C@@H](C(=O)N[C@H](C(=O)Nc2nccs2)[C@@H](C)O)[C@H](CCC(F)(F)F)N(O)C=O)CC1 (some centres not stated) | 0.78%
12 | Cc1ccc(NC(=O)c2ccc(CN3CCCN(Cc4cccc(C#N)c4)CC3)cc2)cc1F | 11.6%
13 | COc1ccc2nc3cc(Cl)ccc3c(NCCCCNc3c4ccc(Cl)cc4nc4ccc(OC)cc34)c2c1 | 2.94%
14 | CCOC(=O)c1nc2ccc(SC3CCCCC3)cn2c1Br | 1.44%
15 | N#Cc1ccc(C(=O)Nc2cccc(-c3ccc(CN4CCCC4)cc3)c2)cc1 | 3.85%
16 | NC(=O)c1cccc(Nc2nccc(Nc3ccc(Oc4cccc(Cl)c4)c(Cl)c3)n2)c1 | 5.11%
17 | CCCCCC(=O)NCC(NCCCNc1cc(=O)c2ccccc2[nH]1)c1cc(Br)cc(Br)c1 (configuration not stated) | 2.34%
18 | CC(=O)Nc1nc(C(=O)Nc2cccc(-c3ccc(-c4nc5cccc(C)c5[nH]4)s3)c2)cs1 | 1.75%
19 | COc1ccc(-c2cccc(NC(=O)c3cccc(Cl)c3)c2)cc1CN1CCN(C)CC1 | 8.74%
20 | CCSc1ccccc1COc1c(C)nc(N)nc1N | 1.4%
21 | CCN(CC)CCN(Cc1ccc(-c2ccc(C(F)(F)F)cc2)cc1)C(=O)Cn1c(CCc2ccc(F)c(C#N)c2)nc(=O)c2ccccc21 | 6.21%
22 | O=C(NCC1CC1)C1CCN(C(c2ccc(Cl)cc2)c2ccc(Cl)cc2)CC1 | 3.4%

Row | Compound | IFI
23 | c1ccc(C23NC(=Nc4nc5ccccc5[nH]4)NC2(c2ccccc2)NC(=Nc2nc4ccccc4[nH]2)N3)cc1 (configuration not stated) | 1.44%
24 | O=C(/C=C/c1ccc(Cl)c(Cl)c1)N1CCC(CNCc2cccc3cc[nH]c23)CC1 | 15.2%
25 | Cc1cccc2nc(-c3ccc(-c4cccc(CN5CCCC(N)C5)c4)s3)[nH]c12 (configuration not stated) | 4.23%
26 | CC1(C)CC(NC(=O)NC2CCN(Cc3ccccc3)CC2)CC(C)(CNC(=O)NC2CCN(Cc3ccccc3)CC2)C1 (configuration not stated) | 0%
27 | CCOc1c(CNCCCNc2cc(=O)c3ccccc3[nH]2)cc(I)cc1C(C)(C)C | 7.48%
28 | COc1ccc2c(c1)CC(CNC[C@H](O)c1cccc(Cl)c1)CC2 (some centres not stated) | 0.75%
29 | O=C(c1cc2nc3c(c(C(F)(F)F)n2n1)CCc1ccccc1-3)N1CCN2CCCC2C1 (configuration not stated) | -0%
30 | CC(=O)Nc1ccc(C(=O)Nc2cccc(-c3ccc(-c4nc5cc(C(F)(F)F)ccc5[nH]4)s3)c2)cn1 | 1.79%
31 | Cc1cccc(CNc2nc(C)cc(N[C@@H](Cc3ccccc3)C(=O)NC3CCCC3)n2)c1 | 27.3%
32 | Cc1cc(CN2CCC(C(=O)Nc3ccc(-c4nc5ccccc5[nH]4)cc3)CC2)oc1C | -0%
33 | CCOC(=O)c1cc(Cl)ccc1OCCCON1C(=N)N=C(N)NC1(C)C | 3.01%
34 | Cc1oc(-c2cccc(Oc3ccccc3)c2)nc1CN(Cc1cnn(C)c1)C(C)C | 2.7%
35 | Nc1nc(N)c2c(Oc3ccc(Cl)c(Cl)c3)cccc2n1 | 7.58%
36 | CC(CNC(=O)[C@H]1CNCCN1C(=O)CCCc1ccccc1)c1ccccc1 (some centres not stated) | 2.84%
37 | C[C@@H](N)C#Cc1cc2c(Nc3ccc(OCc4cccc(F)c4)c(Cl)c3)ncnc2s1 | 7.97%
38 | CCCn1c(O)nnc1SCC(=O)Nc1cc(Cl)ccc1Cl | -0%
39 | CN1CCN(CCCN(Cc2csc(-c3ccc(CNCc4ccccc4)cc3)n2)C(=O)c2cc(F)cc(F)c2)CC1 | 5.52%
40 | CN1CCC(N2CCN(C(=O)c3cccc(-c4cccc(-c5nc6ccccc6[nH]5)c4)c3)CC2)CC1 | 3.96%
41 | COc1ccccc1-c1ccc(C(=O)NCC2CCCN(Cc3cccc(C(F)(F)F)c3)C2)s1 (configuration not stated) | 3.7%
42 | CCc1c[nH]c2c(N3CCCCC3=O)cc(C(=O)N[C@@H](Cc3ccccc3)[C@H](O)CNCc3cccc(OC)c3)cc12 | 2.14%
43 | FC(F)(F)c1ccc(CNCC2CCN(Cc3ccc4c(c3)OCO4)CC2)cc1 | 3.42%
44 | COc1ccc(C2CC(c3cccs3)=NN2C(=O)COc2cccc(C(C)=O)c2)cc1OC (configuration not stated) | 0%

Row | Compound | IFI
45 | COc1ccc2nccc([C@@H](O)CN3CCC(NC(=O)c4ccc(Oc5ccccc5)cc4)CC3)c2c1 | 9.63%
46 | COc1ccc2[nH]ccc(=NN=Cc3cccc(C)n3)c2c1 | 2.19%
47 | CCN(CC)CCCC(C)Nc1c2ccccc2nc2c1ccc1ccccc12 (configuration not stated) | 2.33%
48 | O=C(N[C@@H](CC1CCCCC1)C(=O)NCCc1ccc(Cl)c(Cl)c1)c1ccc(O)c(-c2ccc(Cl)c(Cl)c2)c1 | 2.22%
49 | Cc1ccc2nc3sc(C(=O)NCCCN4CCC(N5CCCCC5)CC4)cc3cc2c1 | 2.94%
50 | CN(C)CCOc1ccc(N2CCN(CCCCNC(=O)c3ccc(NC(=O)c4ccc(Cl)cc4)cc3)CC2)cc1 | 5.45%
51 | COc1ccc(CC(=O)NC(CCN2CCC3(CC2)CN(S(C)(=O)=O)c2ccccc23)c2ccc(Cl)c(Cl)c2)cc1OC (configuration not stated) | 3.45%
52 | Cc1sc2nc(CN3CCCC3)nc(-n3c(NCCO)nc4ccccc43)c2c1C | 9.3%
53 | COc1cc(OC)cc(-c2nn(-c3ccc([N+](=O)[O-])cc3C#N)c(=S)n2Cc2ccco2)c1 | 1.39%
54 | Cc1cc(-c2cccc3c(C(=O)N4CCc5cc6nccc(N7CCN8CCC[C@H]8C7)c6cc54)cccc23)cc(C)n1 | 2.96%
55 | Cc1ccc(S(=O)(=O)N2CCCN(C(=O)c3cc(-c4ccccc4)[nH]n3)CC2)cc1 | -0%
56 | N=C(NCCCc1ccccc1)c1cccc(C(=N)NCCCc2ccccc2)n1 | 1.47%
57 | COc1ccc(-n2nc(C(=O)NCc3ccccc3OC)c3ccccc3c2=O)cc1 | 2.13%
58 | CCCC1(NC[C@@H](O)[C@H](Cc2ccccc2)NC(=O)c2cc(NCC)cc(N3CCCCS3(=O)=O)c2)CC1 | 3.01%
59 | O=C(c1ccc(OCCn2ccnc2)cc1)N1CCC(c2ccc(Br)cc2)C1 (configuration not stated) | 2.38%
60 | O=C(Cc1cccc(Cl)c1)Nc1cccc(-c2c[nH]c3nc(Nc4cccc(OCc5ccccc5)c4)ncc23)c1 | 1.53%
61 | Cc1nc2ccc(NC(=O)Nc3ccnc4ccc(C(F)(F)F)cc34)cc2o1 | 1.52%
62 | Cc1cnc(NCC2CCCCC2)nc1N[C@@H](CO)C(=O)Nc1ccccc1 | 4.88%
63 | O=C(/C=C/c1ccc(Cl)c(Cl)c1)NCCCCCN1CCC(C(=O)Nc2ccc3c(c2)OCO3)CC1 | 6.86%
64 | CCCCCCn1c(Sc2ccc(C#N)c([N+](=O)[O-])c2)nnc1-c1cc(OC)cc(OC)c1 | 9.93%
65 | COc1ccc(N2CCN(CCCCNC(=O)c3ccc(/C=C/c4ccc(Cl)c(Cl)c4)cc3)CC2)c(OC)c1 | 3.54%
66 | CC(C)c1ccc(NC(=O)c2cccc(CN3CCCN(Cc4cccc(C#N)c4)CC3)c2)cc1 | 8.22%

Row | Compound | IFI
67 | O=C(Nc1ccc(Cl)c(-c2nc3ccccc3[nH]2)c1)c1ccc(-c2ccc(Cl)cc2)o1 | 2.82%
68 | Cc1nc2ccc(-c3nc4cc(N)ccc4[nH]3)cc2[nH]1 | 5.8%
69 | Nc1cccc(CNCc2ccc(-c3cccc(-c4nc5ccccc5[nH]4)c3)cc2)c1 | 6.54%
70 | O=C(NCCCCN1CCC(c2ccc3c(c2O)CCCC3)CC1)c1ccc(-c2ccc(Cl)cc2)cc1 | 12%
71 | N#CC(c1ccc(F)cc1)c1ccc2c(C(F)(F)F)cc(C(F)(F)F)nc2n1 (configuration not stated) | 9.7%
72 | COc1ccccc1C1CCN(C2CCC(NC(=O)c3ccc4[nH]c(-c5ccc(C)cc5)nc4c3)CC2)CC1 (configuration not stated) | 11.3%
73 | COc1cc(Br)c(S(=O)(=O)n2cc(CN3CCC(N)CC3)c3cc(Cl)ccc32)cc1OC | 12.7%
74 | O=S(=O)(c1cccc(Br)c1)N1CCCCC(c2ccc(C(F)(F)F)cc2)=N1 | 0.74%
75 | CC1(C)CCC(C)(C)c2c1ccc(C1CCN(CCCCNC(=O)c3ccc(-c4ccc(C#N)cc4)cc3)CC1)c2OCC(N)=O | 5.47%
76 | CC(=O)Nc1ccc(CN2CCC(NC(=O)c3ccc(-c4ccc(N(C)C)cc4)s3)CC2)cc1 | 7.02%
77 | COc1cccc(CN2CCC(N3CCc4cc(NC(=O)c5cc(C)on5)ccc43)C2)c1OC (configuration not stated) | 0%
78 | c1ccc2c(NCCCCCCCCCNc3ccnc4ccccc34)ccnc2c1 | 12.1%
79 | Nc1n[nH]c(-c2ccccc2Nc2ccnc3cc(-c4nccs4)ccc23)n1 | 3.7%
80 | CCN(CC)CCN(Cc1ccc(-c2ccc(Cl)s2)cc1)C(=O)Cn1c(CCc2cccc(F)c2F)nc(=O)c2ccccc21 | 5.15%
81 | Cc1ccc(C(=O)Cn2nc(-c3ccc(C)c(S(=O)(=O)N4CCCC4)c3)ccc2=O)cc1 | -0%
82 | Cc1cc(N/N=C/c2ccccc2[N+](=O)[O-])c2cc(C(F)(F)F)ccc2n1 | 0%
83 | N=C1NC(=O)C(=Cc2cn(-c3ccccc3)nc2-c2cccc(S(=O)(=O)N3CCCC3)c2)S1 | 0%
84 | CCC1(CC)N=C(N)N=C(N)C1c1ccc(Cl)c(Cl)c1 (configuration not stated) | 0.75%
85 | COc1cccc2cc(C(=O)N[C@@H](CC(C)C)C(=O)N[C@H](C=NNC(=O)OC(C)(C)C)CC(C)C)oc12 | 3.67%
86 | CCOC(=O)Nc1cc(-c2csc(N=C(N)N)n2)cc([N+](=O)[O-])c1 | 1.45%
87 | O=C(Nc1ccccc1)N(Cc1ccc(-c2cccc(CNC3CCCC3)c2)cc1)C1CCN(Cc2ccccc2)CC1 | 7.04%
